Source: PubChem BioAssay AID1030 (National Center for Advancing Translational Sciences (NCATS), 2008)
The whole screen tested about 220,000 compounds, of which about 16,000 (7.3%) were called active. Inconclusive results, whose numbers are uncertain, are shown with a selection of clear calls. Calls come from the whole dose curve; as a rule, active = well fitted inhibition curve with a large enough effect (not every such curve was filed as active); inconclusive = small, poorly fitted or top-dose-only effect, or another doubt; inactive = no such curve, though single readings can be large or run the other way. Potencies of inconclusive entries are left out as doubtful fits.

molecular target: Aldehyde dehydrogenase 1A1 (Homo sapiens) (UniProt P00352); experiment: qHTS Assay for Inhibitors of Aldehyde Dehydrogenase 1 (ALDH1A1); settings: Purified ALDH1A1, NADH fluorescence, propionaldehyde substrate; series mostly up to 75.3 µM; activity, negative = inhibition: at the top concentration;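 for activity, negative = inhibition: plate controls were no enzyme wells and a reference inhibitor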
Potency is the fitted concentration of half-maximal effect; tags give direction and shape of the fitted curve.

UniProt P00352, sequence (P00352 whole entry, looked up): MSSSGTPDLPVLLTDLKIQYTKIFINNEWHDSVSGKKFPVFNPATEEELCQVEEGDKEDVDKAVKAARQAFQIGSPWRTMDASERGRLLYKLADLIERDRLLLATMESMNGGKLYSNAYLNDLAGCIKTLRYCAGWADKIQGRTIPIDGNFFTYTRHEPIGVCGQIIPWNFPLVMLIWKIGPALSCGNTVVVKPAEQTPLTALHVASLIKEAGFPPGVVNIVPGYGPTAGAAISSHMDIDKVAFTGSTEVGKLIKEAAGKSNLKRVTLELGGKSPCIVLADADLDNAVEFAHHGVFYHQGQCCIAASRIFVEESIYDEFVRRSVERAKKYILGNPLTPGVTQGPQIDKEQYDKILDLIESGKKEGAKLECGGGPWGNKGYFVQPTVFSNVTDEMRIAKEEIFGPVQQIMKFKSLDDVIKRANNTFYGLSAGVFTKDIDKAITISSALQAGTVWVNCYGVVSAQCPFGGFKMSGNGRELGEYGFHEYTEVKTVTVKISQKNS

Row | SMILES | activity, negative = inhibition | Potency
1 | CCC(C)NC(=O)c1ccccc1NC(=O)c1ccccc1N(C)S(C)(=O)=O (stereo not drawn) | inactive: 3.65% | 
2 | COc1ccccc1-c1cncnc1NCCN1CCOCC1 | inactive: -4.59% | 
3 | O=C(NN1C(=O)c2ccc3c4c(ccc(c24)C1=O)CC3)c1ccc(Br)cc1 |  | inconclusive [inhibitor, partial curve]
4 | Cc1ccc(NC(=O)c2sc(N)nc2-c2ccccc2)cc1C |  | inconclusive [inhibitor, single point]
5 | COc1ccc(C(=O)/C=C/C(=O)N(Cc2ccc3c(c2)OCO3)C(C(=O)NC2CCCCC2)c2ccncc2)c(O)c1 (stereo not drawn) |  | inconclusive [inhibitor, single point]
6 | O=C(Nc1ccccn1)c1ccc(Br)c(S(=O)(=O)N2CCCCC2)c1 |  | inconclusive [inhibitor, single point]
7 | C=C(C)CSc1[nH]c(=O)cc(C)c1C#N | inactive: -16.9% | 
8 | N#Cc1nc(-c2ccco2)oc1NCc1cccnc1 |  | inconclusive [inhibitor, single point]
9 | O=C(Nc1ccc(F)c([N+](=O)[O-])c1)C(=O)c1c(O)[nH]c2ccccc12 |  | active: 12.6 µM
10 | Nc1ccc(SC(F)(F)F)cc1 |  | active: 20 µM
11 | S=c1[nH]nc(-c2ccncc2)n1/N=C/c1ccccc1 |  | inconclusive [inhibitor, single point]
12 | Cc1cc(C)n(-c2nc3ccccc3nc2Nc2ccc3c(c2)OCO3)n1 | inactive: 6.5% | 
13 | O=S(=O)(O)c1ccc(N2N=C(c3ccccc3)CC2c2ccccc2)cc1 (stereo not drawn) |  | inconclusive [inhibitor, partial curve]
14 | O=C(COc1ccccc1)NC(Cc1c[nH]c2ccccc12)C(=O)O (stereo not drawn) | inactive: -6.29% | 
15 | COc1ccc(C)cc1NS(=O)(=O)c1ccc(NS(=O)(=O)c2ccc(NC(C)=O)cc2)cc1 |  | active: 22.4 µM
16 | Cc1nc2c(C(=O)N3CCN(C)CC3)cnn2c(C)c1Cc1ccc(Cl)cc1 |  | inconclusive [inhibitor, partial curve]
17 | CC(=O)Nc1ccc(Br)cc1C(=O)C(=O)O |  | inconclusive [inhibitor, single point]
18 | O=C(OCc1ccco1)c1ccc(S(=O)(=O)N2CCCCC2)cc1 |  | active: 28.2 µM
19 | CCOc1cc(/C=C2\SC(=Nc3ccc(F)cc3)N(c3ccc(F)cc3)C2=O)ccc1OCC(=O)O | inactive: 5.15% | 
20 | CCCCC(=O)Nc1cccc(NC(=O)c2ccc(Br)o2)c1 |  | inconclusive [inhibitor, single point]
21 | Cn1c(=O)n(Cc2ccccc2)c(=O)c2c1nc(NCC1CCCO1)n2Cc1ccccc1 (stereo not drawn) |  | inconclusive [inhibitor, single point]
22 | CCOc1ccccc1NC(=O)CSc1nnc(Cc2cccn2C)n1-c1ccc(F)cc1 |  | inconclusive [inhibitor, single point]
23 | O=c1cc(N2CCCCC2)c(-c2ccccc2)nn1Cc1ccc(Cl)cc1Cl |  | inconclusive [inhibitor, single point]
24 | COc1ccc(C2=NN(C(=S)Nc3ccccc3)C(c3ccccc3)C2)cc1 (stereo not drawn) |  | active: 12.6 µM
25 | COC(=O)c1ccc(C)c(NS(=O)(=O)c2ccc(C)c([N+](=O)[O-])c2)c1 |  | inconclusive [inhibitor, single point]

Row | SMILES | activity, negative = inhibition | Potency
26 | CC(=O)N1CCCc2cc(S(=O)(=O)NCCC3=CCCCC3)ccc21 |  | active: 1.78 µM
27 | O=C(CSc1nnc(CNC(=O)c2c(F)cccc2Cl)o1)Nc1ccc2c(c1)OCO2 |  | inconclusive [inhibitor, single point]
28 | COc1ccccc1CCn1c(=O)c(CCc2ccccc2)nc2cncnc21 |  | inconclusive [inhibitor, single point]
29 | COc1ccc(-c2nc(CSCC(=O)NCc3ccco3)c(C)o2)cc1 |  | inconclusive [inhibitor, single point]
30 | Cc1[nH]c2ccccc2c1NC(=O)CN1CCN(C(=O)c2ccco2)CC1 |  | active: 6.31 µM
31 | CCN1CCN(C(=O)c2ccccc2N(Cc2ccccc2)S(=O)(=O)c2ccc(C)cc2)CC1 | inactive: 2.32% | 
32 | COc1ccc(S(=O)(=O)N(C(=O)c2ccco2)c2cc3sc(=O)oc3c3ccccc23)cc1 |  | active: 25.1 µM
33 | CN1CCc2c(sc3c2c(NCc2ccco2)nc2nnnn23)C1 |  | inconclusive [inhibitor, partial curve]
34 | CC1CCC2(CC1)NC(=O)N(CC(=O)c1cn(CCC#N)c3ccccc13)C2=O (stereo not drawn) |  | active: 7.08 µM
35 | CN1CCN(c2ccc(NC(=O)c3ccc4c(c3)OCCO4)cc2Cl)CC1 | inactive: -6.09% | 
36 | COc1cc(CN2CCNC(=O)C2CC(=O)NCCC2=CCCCC2)cc(OC)c1 (stereo not drawn) |  | active: 20 µM
37 | CC(C)CCNC(=O)NC(=O)COC(=O)CNC(=O)C1CCCCC1 | inactive: 5.56% | 
38 | CN(C)c1nc2ccccc2c(N)c1-c1ccccc1 |  | inconclusive [inhibitor, partial curve]
39 | CCCCn1nc(C(=O)N2CCc3ccccc32)c2ccccc2c1=O |  | inconclusive [inhibitor, single point]
40 | O=C(OCc1csc(Nc2ccccc2)n1)c1ccc(Cl)cc1 | inactive: 4.48% | 
41 | COCCCNC(=O)c1ccc(N2CCCC2)c(NS(=O)(=O)c2ccc(C)cc2)c1 |  | active: 14.1 µM
42 | C=CCc1ccc(OCCOc2ccc(/C=N/n3cnnc3)cc2OCC)c(OC)c1 |  | inconclusive [inhibitor, single point]
43 | COc1ccc(OC)c(C(=O)CSc2nnc(-c3cccs3)o2)c1 |  | inconclusive [inhibitor, single point]
44 | NCCOc1ccccn1 | inactive: 4.57% [at 13.5 µM] | 
45 | Fc1ccc(C2c3cccn3CCN2C(=S)Nc2cccc(F)c2)cc1 (stereo not drawn) |  | inconclusive [inhibitor, single point]
46 | CC(C)c1ccc(NCCC(=O)c2ccc(Br)cc2)cc1 |  | active: 3.98 µM
47 | CCN(CC)S(=O)(=O)c1ccc(NCC2COc3ccccc3O2)c([N+](=O)[O-])c1 (stereo not drawn) | inactive: -4.41% | 
48 | Cc1ccc(S(=O)(=O)n2cnc3cc([N+](=O)[O-])ccc32)c(C)c1C |  | inconclusive [inhibitor, partial curve]
49 | COc1ccc(Cn2nnnc2C(c2cccs2)N2CCSCC2)cc1 (stereo not drawn) | inactive: -15% | 
50 | Cc1noc(C)c1-c1cncnc1NCc1ccccc1 |  | inconclusive [inhibitor, partial curve]

Row | SMILES | activity, negative = inhibition | Potency
51 | Cc1nnc(Nc2ccc3c(c2)OCO3)c2ccccc12 | inactive: 4.7% | 
52 | O=c1c2c3c(sc2nc(NCCO)n1CCc1ccccc1)CCCCC3 |  | inconclusive [inhibitor, single point]
53 | O=C(NCC1CCCO1)C(c1cccs1)N(Cc1cccs1)C(=O)c1ccc(-c2ccccc2)[nH]1 (stereo not drawn) |  | inconclusive [inhibitor, single point]
54 | Cc1ccc(S(=O)(=O)NCCSc2nnnn2C)cc1 |  | inconclusive [inhibitor, single point]
55 | CN(Cc1cccs1)C(=O)Cn1cnc2ccccc2c1=O |  | inconclusive [inhibitor, single point]
56 | COc1ccc(CCN(Cc2cc3cc(C)c(C)cc3nc2Cl)C(=O)C2CC2)cc1 | inactive: 10.5% | 
57 | COC(=O)Nc1ccc(S(=O)(=O)Nc2ccc(C)cc2)cc1 | inactive: 1.64% | 
58 | Cc1cccc(-n2ncc3c(N4CCCc5ccccc54)ncnc32)c1 |  | inconclusive [inhibitor, single point]
59 | Cc1ccc2nc(CSc3nnc(-c4ccco4)o3)cc(=O)n2c1 |  | inconclusive [inhibitor, partial curve]
60 | CC1(C)CCCC2=C1CC1C(=O)N(N)C(=O)C1C2 (stereo not drawn) | inactive: -6.84% | 
61 | CNc1nc(-c2cccs2)cc(C(F)(F)F)c1C#N |  | inconclusive [inhibitor, partial curve]
62 | CC1(C)CC(=O)C(C=NCCN2CCOCC2)=C(O)C1 |  | inconclusive [inhibitor, partial curve]
63 | COc1cccc(C(=O)Nc2cc([N+](=O)[O-])ccc2N2CCN(C)CC2)c1 |  | inconclusive [inhibitor, single point]
64 | COc1ccc(C[C@H]2CN3C(=NC[C@H]3C)N2CCNC(=O)CCC2CCCCC2)cc1 |  | inconclusive [inhibitor, partial curve]
65 | CCC(C)NCCCOc1ccc(Cl)cc1C(C)(C)C (stereo not drawn) |  | inconclusive [inhibitor, single point]
66 | O=C(NC1CCCC1)c1ccc(Br)s1 |  | inconclusive [inhibitor, partial curve, poor fit]
67 | O=C(CCNS(=O)(=O)c1ccc(Br)s1)NCc1ccc2c(c1)OCO2 | inactive: -4.7% | 
68 | O=C(NCc1ccc2c(c1)OCO2)C1CCN(S(=O)(=O)c2ccc(Br)s2)CC1 |  | inconclusive [inhibitor, partial curve]
69 | Cc1nn(C(C)C(=O)NNC(=S)Nc2ccc(Cl)cc2)c(C)c1[N+](=O)[O-] (stereo not drawn) |  | inconclusive [inhibitor, single point]
70 | Cc1cc(C(C#N)c2ccccc2)n2ncnc2n1 (stereo not drawn) |  | inconclusive [inhibitor, single point]
71 | COc1ccc(C2C(C(=O)N3CCC(C(N)=O)CC3)CC(=O)N2c2ccc(OC)cc2)cc1 (stereo not drawn) |  | inconclusive [inhibitor, single point]
72 | Nc1ccccc1SCc1cn2ccccc2n1 | inactive: 7.81% | 
73 | CC(=O)Nc1ccc(S(=O)(=O)NCCSCc2ccccc2Cl)cc1 |  | inconclusive [inhibitor, partial curve]
